Reference: PMC4336329 (PLoS ONE, 2015)
Screen size: about 310,000 compounds; about 14,000 (4.5%) showed an effect of 50% or more. The effect is printed as a negative number. The list shows a part of the results.

What follows are molecules tested against human ether-à-go-go-related gene (hERG) potassium channel (human, UniProt Q12809) (assay: primary screen, population patch clamp on CHO cells stably expressing hERG).
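Further: peak tail current of the secondary pulse compared with the same well before compound.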

Sequence of human ether-à-go-go-related gene (hERG) potassium channel (Q12809 whole entry, looked up): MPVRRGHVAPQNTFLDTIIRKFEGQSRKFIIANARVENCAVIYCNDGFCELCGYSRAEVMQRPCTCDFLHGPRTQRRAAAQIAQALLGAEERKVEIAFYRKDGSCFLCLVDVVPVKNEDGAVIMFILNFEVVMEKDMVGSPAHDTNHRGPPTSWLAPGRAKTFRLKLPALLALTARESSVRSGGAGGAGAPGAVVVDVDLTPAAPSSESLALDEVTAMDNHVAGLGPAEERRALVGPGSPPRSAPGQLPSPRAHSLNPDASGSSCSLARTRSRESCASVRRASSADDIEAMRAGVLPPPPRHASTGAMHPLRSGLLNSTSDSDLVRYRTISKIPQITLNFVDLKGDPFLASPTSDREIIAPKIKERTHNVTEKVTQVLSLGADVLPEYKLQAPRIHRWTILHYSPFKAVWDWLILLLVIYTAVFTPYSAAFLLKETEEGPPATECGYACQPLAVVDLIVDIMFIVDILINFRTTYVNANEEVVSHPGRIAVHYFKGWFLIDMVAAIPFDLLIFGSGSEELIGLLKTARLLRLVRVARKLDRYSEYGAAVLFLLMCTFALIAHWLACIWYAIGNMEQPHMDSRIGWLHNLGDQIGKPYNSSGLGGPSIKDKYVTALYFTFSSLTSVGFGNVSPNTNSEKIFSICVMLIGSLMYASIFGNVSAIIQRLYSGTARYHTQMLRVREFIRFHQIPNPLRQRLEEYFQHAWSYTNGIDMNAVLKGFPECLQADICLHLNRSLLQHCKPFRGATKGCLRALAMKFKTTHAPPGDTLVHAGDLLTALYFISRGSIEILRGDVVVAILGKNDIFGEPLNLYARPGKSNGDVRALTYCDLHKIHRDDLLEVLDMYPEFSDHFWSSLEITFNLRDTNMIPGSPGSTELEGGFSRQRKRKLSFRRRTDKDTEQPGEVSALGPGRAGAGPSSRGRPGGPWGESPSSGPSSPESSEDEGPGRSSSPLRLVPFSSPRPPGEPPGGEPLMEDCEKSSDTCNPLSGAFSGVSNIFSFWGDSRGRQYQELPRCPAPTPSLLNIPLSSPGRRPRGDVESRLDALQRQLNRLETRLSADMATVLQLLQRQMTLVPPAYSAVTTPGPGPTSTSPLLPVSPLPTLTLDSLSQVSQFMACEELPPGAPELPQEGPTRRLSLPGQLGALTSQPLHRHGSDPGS

Q: With COc1ccccc1N1CCN(CCN(C(=O)C2CCCCC2)c2ccccn2)CC1.O=C(O)/C=C\C(=O)O as the molecule, how does the “hERG current change (%, negative = inhibition) at 10uM” value read?
A: -27.4%

Q: CC(C)CCNC(=O)C1C2C=CC3(CN(Cc4ccccc4Cl)C(=O)C13)O2 (centres unmarked) was tested. Which “hERG current change (%, negative = inhibition) at 10uM” value did it give?
A: -4%

Q: For O=C(Nc1ccnn1C1CCN(Cc2ccccc2OC(F)F)CC1)c1cccnc1, which “hERG current change (%, negative = inhibition) at 10uM” value is on record?
A: -12.3%

Q: Cc1nn(C(=O)c2cc([N+](=O)[O-])ccc2Cl)c(C)c1Br was tested. Which “hERG current change (%, negative = inhibition) at 10uM” value did it give?
A: -0.31%

Q: For CCCCn1c(N)c(Sc2ccc(C)cc2)c(=O)[nH]c1=O, which “hERG current change (%, negative = inhibition) at 10uM” value is on record?
A: 2%

Q: For CN1C(=O)C(CC(=O)Nc2ccccc2F)N(NC(=O)c2ccc(Br)cc2)C1=S (centres unmarked), which “hERG current change (%, negative = inhibition) at 10uM” value is on record?
A: 6.5%

Q: How did the “hERG current change (%, negative = inhibition) at 10uM” value turn out when O=C(OCC(=O)N(Cc1ccccc1)Cc1ccccc1)c1ccccc1NCCO was run?
A: -15.4%

Q: With CCOc1cc2c(cc1OCC)-n1cccc1C(c1ccc(C(C)C)cc1)NC2.Cl (centres unmarked) as the molecule, how does the “hERG current change (%, negative = inhibition) at 10uM” value read?
A: -9.2%

Q: For COc1ccnc(NCc2cccnc2)c1C#N, which “hERG current change (%, negative = inhibition) at 10uM” value is on record?
A: 12.6%

Q: Which “hERG current change (%, negative = inhibition) at 10uM” value does the source give for CCOc1ccc(N2CC(C(=O)Nc3ccc(N4CCOCC4)cc3)CC2=O)cc1 (centres unmarked) here?
A: 13.9%

Q: How did the “hERG current change (%, negative = inhibition) at 10uM” value turn out when CC(C)(C)c1ccc(-c2nc(O)c(CC(=O)O)s2)cc1 was run?
A: 16.3%

Q: How did the “hERG current change (%, negative = inhibition) at 10uM” value turn out when N#C/C(=N\Nc1ccccc1)C(=N)N1CCCCC1 was run?
A: -21.6%

Q: With CCN(CC)c1ccc(/C=N/NC(=O)c2ccc3nc[nH]c3c2)cc1 as the molecule, how does the “hERG current change (%, negative = inhibition) at 10uM” value read?
A: -22%

Q: COc1ccc(N2CCN(CC(=O)Nc3ccccc3SC)CC2)cc1 was tested. Which “hERG current change (%, negative = inhibition) at 10uM” value did it give?
A: -5.77%

Q: With COc1ccc(CNC(=O)CCn2ccc3cc(S(=O)(=O)N4CCCC4)ccc32)cc1 as the molecule, how does the “hERG current change (%, negative = inhibition) at 10uM” value read?
A: -12.4%

Q: Which “hERG current change (%, negative = inhibition) at 10uM” value does the source give for Cc1cccc(N/C=C/C(=O)c2cccs2)c1C here?
A: 5.04%

Q: CC(C)Cc1ccc([C@H](C)C(=O)O)cc1 was tested. Which “hERG current change (%, negative = inhibition) at 10uM” value did it give?
A: 7.11%

Q: With CC(C)COc1ccc(/C=C2/Sc3ccccc3C2=O)cc1 as the molecule, how does the “hERG current change (%, negative = inhibition) at 10uM” value read?
A: 15.1%

Q: With CCN(CC)C(=O)c1cc2c(=O)c3cc(Cl)ccc3oc2nc1C as the molecule, how does the “hERG current change (%, negative = inhibition) at 10uM” value read?
A: -66.1%

Q: For COc1ccc(/C=N/NC(=O)c2ccccc2OC)cc1COc1ccc(C)cc1, which “hERG current change (%, negative = inhibition) at 10uM” value is on record?
A: 17.6%

Q: With Cc1ccc(C(=O)NNC(=O)OC(C)(C)C)c(Cl)c1 as the molecule, how does the “hERG current change (%, negative = inhibition) at 10uM” value read?
A: 13.1%

Q: How did the “hERG current change (%, negative = inhibition) at 10uM” value turn out when O=C(NC1CCCCC1)C(c1ccc(O)cc1)N(CC1CCCO1)C(=O)C1COc2ccccc2O1 (centres unmarked) was run?
A: -29.4%

Q: How did the “hERG current change (%, negative = inhibition) at 10uM” value turn out when COc1cccc(N(CC(=O)NCC2CCCO2)C(=O)CNS(=O)(=O)c2ccccc2)c1 (centres unmarked) was run?
A: 23.1%

Q: With Cc1ccc(C2(C(F)(F)F)NC(=O)N3N=C4CCCCCN4C3=C2C#N)cc1 (centres unmarked) as the molecule, how does the “hERG current change (%, negative = inhibition) at 10uM” value read?
A: 7.51%

Q: For C/C=C(/C)C(=O)O[C@@H]1c2c(ccc3ccc(=O)oc23)OC(C)(C)[C@@H]1OC(=O)/C(C)=C\C, which “hERG current change (%, negative = inhibition) at 10uM” value is on record?
A: -8.07%

Q: Which “hERG current change (%, negative = inhibition) at 10uM” value does the source give for CC(=O)N(c1ccccc1C)S(=O)(=O)c1ccc(Cl)cc1 here?
A: -0.53%

Q: CCC(=O)c1ccc(OCC(=O)N2CCN(c3ncccn3)CC2)cc1 was tested. Which “hERG current change (%, negative = inhibition) at 10uM” value did it give?
A: -17.1%

Q: For O=C(NCCc1ccccn1)C(F)(F)C(F)(F)C(F)(F)C(F)(F)C(F)(F)C(F)F, which “hERG current change (%, negative = inhibition) at 10uM” value is on record?
A: -23.9%

Q: How did the “hERG current change (%, negative = inhibition) at 10uM” value turn out when Cc1ccccc1C(=O)c1cccn1CC(=O)NC1CCCC(C)C1C (centres unmarked) was run?
A: 2.14%

Q: COc1ccc(C(=O)/C(=C/O)N=Nc2ccc(F)cc2)cc1 was tested. Which “hERG current change (%, negative = inhibition) at 10uM” value did it give?
A: 9.72%

Q: Which “hERG current change (%, negative = inhibition) at 10uM” value does the source give for Cc1ccc(S(=O)(=O)N2CCSC2=Nc2ccccc2)cc1 here?
A: 0.53%

Q: With CCCC(=O)N1CCN(C2=NS(=O)(=O)c3ccccc32)CC1 as the molecule, how does the “hERG current change (%, negative = inhibition) at 10uM” value read?
A: -3%

Q: How did the “hERG current change (%, negative = inhibition) at 10uM” value turn out when CCCOc1cccc(C(=O)Nc2cccnc2)c1 was run?
A: -23.1%

Q: Which “hERG current change (%, negative = inhibition) at 10uM” value does the source give for COc1cc(O)cc(O)c1C(=O)/C=C/c1ccccc1 here?
A: 10.6%

Q: CC1CCCCN1c1ncnc(N)c1[N+](=O)[O-] (centres unmarked) was tested. Which “hERG current change (%, negative = inhibition) at 10uM” value did it give?
A: 9.32%

Q: CCOC(=O)N1CCC(n2c(=S)[nH]c3ccccc3c2=O)CC1 was tested. Which “hERG current change (%, negative = inhibition) at 10uM” value did it give?
A: 3.38%

Q: How did the “hERG current change (%, negative = inhibition) at 10uM” value turn out when Cc1cccc(C(=O)NNC(=O)c2ccc(F)cc2)c1 was run?
A: 10.9%

Q: Which “hERG current change (%, negative = inhibition) at 10uM” value does the source give for CCOc1cccc(-c2c(C(=O)N/N=C/c3sccc3C)nnn2-c2nonc2N)c1 here?
A: 20.1%

Q: Which “hERG current change (%, negative = inhibition) at 10uM” value does the source give for CCCOc1ccc(-c2c(=O)n(OCc3ccc([N+](=O)[O-])cc3)c3ccccc3[n+]2[O-])cc1 here?
A: 2.68%

Q: Which “hERG current change (%, negative = inhibition) at 10uM” value does the source give for CCOC(=O)c1cnc(SCC(C)C)nc1N here?
A: -21%

Q: CCCNc1ccc(S(=O)(=O)N(CC)CC)cn1 was tested. Which “hERG current change (%, negative = inhibition) at 10uM” value did it give?
A: 8.07%

Q: With CCN(c1ccc(C(O)(C(=O)OC)C(F)(F)F)cc1)S(=O)(=O)c1ccccc1 (centres unmarked) as the molecule, how does the “hERG current change (%, negative = inhibition) at 10uM” value read?
A: -24.4%

Q: How did the “hERG current change (%, negative = inhibition) at 10uM” value turn out when O=C1CC(SCCc2nc3ccccc3[nH]2)C(=O)N1c1ccc(F)c(Cl)c1 (centres unmarked) was run?
A: -20%

Q: How did the “hERG current change (%, negative = inhibition) at 10uM” value turn out when CCn1c(CCC(=O)Nc2nc3c(s2)CCCC3)nc2cc(S(=O)(=O)N(C)C)ccc21 was run?
A: -20.4%

Q: How did the “hERG current change (%, negative = inhibition) at 10uM” value turn out when COc1ccc(S(=O)(=O)Nc2ccc(Cl)cn2)cc1 was run?
A: -8.53%

Q: How did the “hERG current change (%, negative = inhibition) at 10uM” value turn out when Br.O=C(Nc1ccc(F)cc1)C1=CC(=O)N2CCN=C2S1 was run?
A: 8.85%

Q: With COc1ccc(Cl)cc1C(=O)NCc1cn(C)nc1C as the molecule, how does the “hERG current change (%, negative = inhibition) at 10uM” value read?
A: 12.7%

Q: CCCn1c(CNC(=O)c2cccs2)nc2ccccc21 was tested. Which “hERG current change (%, negative = inhibition) at 10uM” value did it give?
A: -9.94%

Q: Which “hERG current change (%, negative = inhibition) at 10uM” value does the source give for CC(C)c1ccc(NC(=O)[C@@H]2CCC(=O)N2C2OC(=O)c3ccccc32)cc1 (some centres unmarked) here?
A: 2.65%

Q: Which “hERG current change (%, negative = inhibition) at 10uM” value does the source give for CC(=O)c1ccc(N2CCN(C(=O)Cn3c(=S)[nH]c4ncccc4c3=O)CC2)cc1 here?
A: 16.9%

Q: For Cc1cccc(C)c1NC(=O)c1cccc(C(=O)Nc2c(C)cccc2C)n1, which “hERG current change (%, negative = inhibition) at 10uM” value is on record?
A: -24.2%

Q: How did the “hERG current change (%, negative = inhibition) at 10uM” value turn out when O=C1C2(c3ccccc3)CN(CCO)CC1(c1ccccc1)CN(CCO)C2 was run?
A: -10.6%

Q: How did the “hERG current change (%, negative = inhibition) at 10uM” value turn out when CCOC(=O)c1ccccc1NC(=O)CN(c1ccccc1OCC)S(C)(=O)=O was run?
A: -23%

Q: For CCOC(=O)N1CCN(C(=O)c2nn(-c3cc(OC)cc(OC)c3)c(=O)c3ccccc23)CC1, which “hERG current change (%, negative = inhibition) at 10uM” value is on record?
A: -1.03%

Q: With COc1ccc(-c2nnc(NC(=O)CS(=O)(=O)c3ccc(F)cc3)o2)cc1 as the molecule, how does the “hERG current change (%, negative = inhibition) at 10uM” value read?
A: 4.02%

Q: For O=C1CCCc2c1cc(C(=O)NCc1ccco1)c(=O)n2-c1ccccc1, which “hERG current change (%, negative = inhibition) at 10uM” value is on record?
A: -10.3%
